Most values come without repeats; read them as rough.
Legend:
CHO-K1 [1] = experiment: relative survival (nuclei to bead ratio vs DMSO control) (% of vehicle control); higher = more surviving cells
Description: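 Flow-cytometric in vitro micronucleus assay (Litron MicroFlow) in CHO-K1 cells in 96-well plates, 19 concentrations (4.5-200 µM, n=1 per concentration). Without S9, cells were exposed for 24 h and sampled at 48 h. With Aroclor 1254-induced rat liver S9, cells were exposed for 3-4 h and sampled at 27-28 h. Read-outs are %MN and %hypodiploid nuclei relative to nucleated events, and relative survival as the nuclei-to-bead ratio versus the 1% DMSO vehicle control (x100).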

CHO-K1 [2] = experiment: micronucleus frequency (% of nucleated events); higher = more micronuclei (genotoxic)
CHO-K1 [3] = experiment: hypodiploid nuclei frequency (% of nucleated events); higher = more hypodiploid events (aneugenic)
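For hypodiploid nuclei frequency (% of nucleated events) in this document: hypodiploid nuclei gated on a flow cytometer with 488 nm excitation after SYTOX Green staining, cultures at 37 °C, positive controls vinblastine without S9 and cyclophosphamide with S9.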
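For micronucleus frequency (% of nucleated events) in this document: cells lysed with nuclei stained by SYTOX Green, then micronucleus-gated events counted against nucleated events by flow cytometry with 488 nm excitation.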
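For relative survival (nuclei to bead ratio vs DMSO control) in this document: Lysed-cell nuclei stained with SYTOX Green and counted against counting beads by flow cytometry at 488 nm excitation, with vinblastine (no S9) and cyclophosphamide (plus S9) as positive controls.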

CCOC(=O)c1ccc(O)cc1 [Ethylparaben]
Conditions | hypodiploid nuclei frequency, CHO-K1 [3] [%] | micronucleus frequency, CHO-K1 [2] [%] | relative survival, CHO-K1 [1]
concentration: 4.5 (µM), S9 metabolic activation: with S9, exposure time: 3-4 hours | 0.22 | 1.32 | 90.2
concentration: 4.5 (µM), S9 metabolic activation: without S9, exposure time: 24 hours | 0.54 | 1.56 | 116
concentration: 5.63 (µM), S9 metabolic activation: with S9, exposure time: 3-4 hours | 0.32 | 1.62 | 88.5
concentration: 5.63 (µM), S9 metabolic activation: without S9, exposure time: 24 hours | 0.64 | 1.52 | 95.5
concentration: 7.04 (µM), S9 metabolic activation: with S9, exposure time: 3-4 hours | 0.4 | 1.9 | 82.7
concentration: 7.04 (µM), S9 metabolic activation: without S9, exposure time: 24 hours | 0.64 | 1.52 | 118
concentration: 8.8 (µM), S9 metabolic activation: with S9, exposure time: 3-4 hours | 0.34 | 1.82 | 109
concentration: 8.8 (µM), S9 metabolic activation: without S9, exposure time: 24 hours | 0.5 | 1.5 | 111
concentration: 11 (µM), S9 metabolic activation: with S9, exposure time: 3-4 hours | 0.26 | 1.64 | 92.6
concentration: 11 (µM), S9 metabolic activation: without S9, exposure time: 24 hours | 0.54 | 1.96 | 131
concentration: 13.7 (µM), S9 metabolic activation: with S9, exposure time: 3-4 hours | 0.34 | 1.98 | 107
concentration: 13.7 (µM), S9 metabolic activation: without S9, exposure time: 24 hours | 0.5 | 1.78 | 138
concentration: 17.2 (µM), S9 metabolic activation: with S9, exposure time: 3-4 hours | 0.44 | 2.12 | 111
concentration: 17.2 (µM), S9 metabolic activation: without S9, exposure time: 24 hours | 0.8 | 1.82 | 129
concentration: 21.5 (µM), S9 metabolic activation: with S9, exposure time: 3-4 hours | 0.32 | 1.28 | 119
concentration: 21.5 (µM), S9 metabolic activation: without S9, exposure time: 24 hours | 0.7 | 1.44 | 123
concentration: 26.8 (µM), S9 metabolic activation: with S9, exposure time: 3-4 hours | 0.46 | 1.18 | 91.8
concentration: 26.8 (µM), S9 metabolic activation: without S9, exposure time: 24 hours | 0.58 | 1.98 | 107
concentration: 33.6 (µM), S9 metabolic activation: with S9, exposure time: 3-4 hours | 0.2 | 1.2 | 90.2
concentration: 33.6 (µM), S9 metabolic activation: without S9, exposure time: 24 hours | 0.46 | 1.38 | 101
concentration: 41.9 (µM), S9 metabolic activation: with S9, exposure time: 3-4 hours | 0.32 | 1.1 | 94.7
concentration: 41.9 (µM), S9 metabolic activation: without S9, exposure time: 24 hours | 0.52 | 1.88 | 97.1
concentration: 52.4 (µM), S9 metabolic activation: with S9, exposure time: 3-4 hours | 0.44 | 1.66 | 104
concentration: 52.4 (µM), S9 metabolic activation: without S9, exposure time: 24 hours | 0.96 | 2.5 | 107
concentration: 65.5 (µM), S9 metabolic activation: with S9, exposure time: 3-4 hours | 0.34 | 1.26 | 99.1
concentration: 65.5 (µM), S9 metabolic activation: without S9, exposure time: 24 hours | 0.78 | 2.46 | 109
concentration: 81.9 (µM), S9 metabolic activation: with S9, exposure time: 3-4 hours | 0.34 | 1.46 | 119
concentration: 81.9 (µM), S9 metabolic activation: without S9, exposure time: 24 hours | 0.74 | 1.84 | 117
concentration: 102 (µM), S9 metabolic activation: with S9, exposure time: 3-4 hours | 0.38 | 1.54 | 109
concentration: 102 (µM), S9 metabolic activation: without S9, exposure time: 24 hours | 0.72 | 2.08 | 101
concentration: 128 (µM), S9 metabolic activation: with S9, exposure time: 3-4 hours | 0.32 | 1.64 | 128
concentration: 128 (µM), S9 metabolic activation: without S9, exposure time: 24 hours | 1.1 | 1.96 | 116
concentration: 160 (µM), S9 metabolic activation: with S9, exposure time: 3-4 hours | 0.28 | 1.42 | 142
concentration: 160 (µM), S9 metabolic activation: without S9, exposure time: 24 hours | 1.02 | 2.16 | 90.3
concentration: 200 (µM), S9 metabolic activation: with S9, exposure time: 3-4 hours | 0.36 | 1.5 | 117
concentration: 200 (µM), S9 metabolic activation: without S9, exposure time: 24 hours | 1.26 | 2.16 | 95.5
